This is an account of results in patent publication US20220306748A1 (SHINE ON BIOMEDICAL, published 2022).

Usually koff stands for a measure of how fast the partners let go of each other. As a reminder, the kon is the rate constant with which the complex forms.

Assay [1] has as its target T1, CD3ε (CD3 epsilon) recombinant protein (UniProt P07766 23-126, limits assumed).
T1 construct: The method says 'CD3 recombinant protein', while the legend and the result say CD3ε
The assay is described as follows: SPR kinetics (BIAcore T200), CD3ε as immobilised ligand, analyte 28.125-3600 nM, flow 15 µL/min, association 350 s, dissociation 900 s. For orientation: In SPR one partner is held on a chip, and binding of the other changes the refractive index at the surface.

Assay [2] deals with programmed cell death ligand 1 (PD-L1) recombinant protein (UniProt Q9NZQ7 part only, limits assumed). The assay is described as follows: SPR kinetics (BIAcore T200), PD-L1 as immobilised ligand, analyte 0.78125-100 nM, flow 30 µL/min, association 120 s, dissociation 900 s.
Chain of UniProt Q9NZQ7 (Q9NZQ7 19-238 limits assumed): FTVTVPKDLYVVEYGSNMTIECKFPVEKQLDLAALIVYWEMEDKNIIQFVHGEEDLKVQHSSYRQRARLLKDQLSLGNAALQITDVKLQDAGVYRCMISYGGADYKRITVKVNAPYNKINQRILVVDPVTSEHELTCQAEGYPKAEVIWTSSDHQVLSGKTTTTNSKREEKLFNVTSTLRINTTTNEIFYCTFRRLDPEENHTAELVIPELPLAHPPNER

T1 sequence (P07766 23-126 limits assumed): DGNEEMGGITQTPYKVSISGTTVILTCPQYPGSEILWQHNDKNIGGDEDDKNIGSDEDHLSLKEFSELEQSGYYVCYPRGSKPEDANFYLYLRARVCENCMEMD

B1: PD-L1×HLA-G×CD3ε nanobody-based triple specific T-cell engager (PD-L1×HLA-G×CD3ε nanobody-based TriTE) (Fc fusion)
chain: HVQLVESGGGLVQPGGSLRISCAASGFTFSSRAMSWVRQAPGKGLEWVSTINSDGSNTYYSDSVKDRFTISRDNAINTLYLQLNSLKTEDTAMYYCSRCPDIYCGGQYTYRGQGTQVTVSSGGGGSGGGGSGGGGSHVQLVESGGGSVQAGGSLKLSCVTSAYTFSASGNCMGWLRQAPGKGREGIAATYTRSAKTYYADSVKGRFTISQDNAKNTVYLQMNGLKPEDTATYYCAVARCAGRPDRSTLTSFAWWGQGTQVTVSSHVQLVESGGGSVQAGGSLRLSCTVSGVIFKNEYMGWFRQAPGKEREGVAAASPGGTITYYGDSVKGRFTISRDNAKNTVYLQMNRLKPEDTAMYYCALDPSTTSWSIIRHGPSLWRYSGRGTQVTVSS[letters of human IgG1 Fc with V279Y (EU numbers) left out]
notes: The order of the parts follows the listing in the text (signal peptide, VHH1, flexible linker, VHH2, VHH3, CH2-CH3); More linkers may stand between VHH2/VHH3 and VHH3/Fc; also called Nb-TriTE; immunomodulation and anti-tumor-related nanobody
Turning to B1, in assay [1], the koff worked out at 0.000173 s⁻¹ and the kon is 49800 M⁻¹ s⁻¹. For the same molecule, in assay [2], the koff stood at 0.000919 s⁻¹ and the kon was 349000 M⁻¹ s⁻¹.
